The chains are these.
T1: RBFOX1 RRM (Homo sapiens, UniProt Q9NWB1 109-208)
T1 sequence: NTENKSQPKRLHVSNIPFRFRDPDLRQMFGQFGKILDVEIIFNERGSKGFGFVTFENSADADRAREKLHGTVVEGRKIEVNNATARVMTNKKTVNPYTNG

B1: GAGGCCA (DNA:RNA)
RNA: GGGAGACCGGAAUUCAGAUUGUCCGAGGCCAUUAAAUCCCGUCGUAGCCACCA
DNA 1: CAATCTGAATTCCGGTCTCCC
DNA 2: TGGTGGCTACGACGGGATT
B2: UCACAGA (DNA:RNA)
RNA: B1 RNA with G25U, A26C, G27A, G28C, C29A, C30G
DNA 1: CAATCTGAATTCCGGTCTCCC
DNA 2: TGGTGGCTACGACGGGATT
B3: CUAGCAA (DNA:RNA)
RNA: B1 RNA with G25C, A26U, G27A, C30A
DNA 1: CAATCTGAATTCCGGTCTCCC
DNA 2: TGGTGGCTACGACGGGATT
B4: AUAGCGC (DNA:RNA)
RNA: B1 RNA with G25A, A26U, G27A, C30G, A31C
DNA 1: CAATCTGAATTCCGGTCTCCC
DNA 2: TGGTGGCTACGACGGGATT
B5: UAGAAGC (DNA:RNA)
RNA: B1 RNA with G25U, G28A, C29A, C30G, A31C
DNA 1: CAATCTGAATTCCGGTCTCCC
DNA 2: TGGTGGCTACGACGGGATT
B6: AACGUUA (DNA:RNA)
RNA: B1 RNA with G25A, G27C, C29U, C30U
DNA 1: CAATCTGAATTCCGGTCTCCC
DNA 2: TGGTGGCTACGACGGGATT
B7: GUAACAC (DNA:RNA)
RNA: B1 RNA with A26U, G27A, G28A, C30A, A31C
DNA 1: CAATCTGAATTCCGGTCTCCC
DNA 2: TGGTGGCTACGACGGGATT
B8: CGUAUCG (DNA:RNA)
RNA: B1 RNA with G25C, A26G, G27U, G28A, C29U, A31G
DNA 1: CAATCTGAATTCCGGTCTCCC
DNA 2: TGGTGGCTACGACGGGATT
B9: UGUAUAA (DNA:RNA)
RNA: B1 RNA with G25U, A26G, G27U, G28A, C29U, C30A
DNA 1: CAATCTGAATTCCGGTCTCCC
DNA 2: TGGTGGCTACGACGGGATT
B10: CUGCACC (DNA:RNA)
RNA: B1 RNA with G25C, A26U, G28C, C29A, A31C
DNA 1: CAATCTGAATTCCGGTCTCCC
DNA 2: TGGTGGCTACGACGGGATT
B11: AGCUAAC (DNA:RNA)
RNA: GGGAGACCGGAAUUCAGAUUGUCCAGCUAACUUAAAUCCCGUCGUAGCCACCA
DNA 1: CAATCTGAATTCCGGTCTCCC
DNA 2: TGGTGGCTACGACGGGATT
B12: UGCUUAU (DNA:RNA)
RNA: B11 RNA with A25U, A29U, C31U
DNA 1: CAATCTGAATTCCGGTCTCCC
DNA 2: TGGTGGCTACGACGGGATT
B13: UAAUGUG (DNA:RNA)
RNA: B11 RNA with A25U, G26A, C27A, A29G, A30U, C31G
DNA 1: CAATCTGAATTCCGGTCTCCC
DNA 2: TGGTGGCTACGACGGGATT
B14: ACACGCA (DNA:RNA)
RNA: B1 RNA with G25A, A26C, G27A, G28C, C29G
DNA 1: CAATCTGAATTCCGGTCTCCC
DNA 2: TGGTGGCTACGACGGGATT
B15: AUGGGAA (DNA:RNA)
RNA: B1 RNA with G25A, A26U, C29G, C30A
DNA 1: CAATCTGAATTCCGGTCTCCC
DNA 2: TGGTGGCTACGACGGGATT
B16: GUUAAUU (DNA:RNA)
RNA: B11 RNA with A25G, G26U, C27U, U28A, A30U, C31U
DNA 1: CAATCTGAATTCCGGTCTCCC
DNA 2: TGGTGGCTACGACGGGATT
B17: CGGUGGC (DNA:RNA)
RNA: B11 RNA with A25C, C27G, A29G, A30G
DNA 1: CAATCTGAATTCCGGTCTCCC
DNA 2: TGGTGGCTACGACGGGATT
B18: CCAUCUA (DNA:RNA)
RNA: B1 RNA with G25C, A26C, G27A, G28U, C30U
DNA 1: CAATCTGAATTCCGGTCTCCC
DNA 2: TGGTGGCTACGACGGGATT
B19: CCCGCUA (DNA:RNA)
RNA: B1 RNA with G25C, A26C, G27C, C30U
DNA 1: CAATCTGAATTCCGGTCTCCC
DNA 2: TGGTGGCTACGACGGGATT
B20: CCGCCUA (DNA:RNA)
RNA: B1 RNA with G25C, A26C, G28C, C30U
DNA 1: CAATCTGAATTCCGGTCTCCC
DNA 2: TGGTGGCTACGACGGGATT
B21: GGCACUA (DNA:RNA)
RNA: B1 RNA with A26G, G27C, G28A, C30U
DNA 1: CAATCTGAATTCCGGTCTCCC
DNA 2: TGGTGGCTACGACGGGATT
B22: CUUAUCU (DNA:RNA)
RNA: B1 RNA with G25C, A26U, G27U, G28A, C29U, A31U
DNA 1: CAATCTGAATTCCGGTCTCCC
DNA 2: TGGTGGCTACGACGGGATT
B23: UCGAGAA (DNA:RNA)
RNA: B1 RNA with G25U, A26C, G28A, C29G, C30A
DNA 1: CAATCTGAATTCCGGTCTCCC
DNA 2: TGGTGGCTACGACGGGATT
B24: UGGAUCC (DNA:RNA)
RNA: B11 RNA with A25U, C27G, U28A, A29U, A30C
DNA 1: CAATCTGAATTCCGGTCTCCC
DNA 2: TGGTGGCTACGACGGGATT
B25: AGCGCCA (DNA:RNA)
RNA: B1 RNA with G25A, A26G, G27C
DNA 1: CAATCTGAATTCCGGTCTCCC
DNA 2: TGGTGGCTACGACGGGATT
B26: GCAUGUA (DNA:RNA)
RNA: B1 RNA with A26C, G27A, G28U, C29G, C30U
DNA 1: CAATCTGAATTCCGGTCTCCC
DNA 2: TGGTGGCTACGACGGGATT
B27: AUGAUGU (DNA:RNA)
RNA: B11 RNA with G26U, C27G, U28A, A29U, A30G, C31U
DNA 1: CAATCTGAATTCCGGTCTCCC
DNA 2: TGGTGGCTACGACGGGATT
B28: UCCUACC (DNA:RNA)
RNA: B11 RNA with A25U, G26C, A30C
DNA 1: CAATCTGAATTCCGGTCTCCC
DNA 2: TGGTGGCTACGACGGGATT
B29: UACGGAU (DNA:RNA)
RNA: B11 RNA with A25U, G26A, U28G, A29G, C31U
DNA 1: CAATCTGAATTCCGGTCTCCC
DNA 2: TGGTGGCTACGACGGGATT
B30: ACUAGAU (DNA:RNA)
RNA: B11 RNA with G26C, C27U, U28A, A29G, C31U
DNA 1: CAATCTGAATTCCGGTCTCCC
DNA 2: TGGTGGCTACGACGGGATT
B31: ACGUGCU (DNA:RNA)
RNA: B11 RNA with G26C, C27G, A29G, A30C, C31U
DNA 1: CAATCTGAATTCCGGTCTCCC
DNA 2: TGGTGGCTACGACGGGATT

Residue numbers refer to the chain shown, from its start. Some of the results follow.

This experiment has as its target T1, RBFOX1 RRM. Nature of the experiment: EMSA; HiTS-Eq, 1 nM pool, 10 min; buffer printed only for the single-RNA assays: 10 mM Tris pH 7.5, 150 mM NaCl, 3.4 mM EDTA, 0.001% NP-40, 30 C. The following applies: tags: His6 N-terminal (pET28a); label: 5' 32P. Summed up:
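These values rest on relative association constants, computed from read-count changes of each RNA species versus the control reaction and normalised to the cognate motif. Reads came from free RNA recovered by 8% native PAGE after purified RbFox RRM (wild type or mutant) at increasing concentrations was equilibrated for 10 min in 50 µL with 1 nM of a 5′-radiolabelled pool with 7 randomized nucleotides and DNA-annealed flanks.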
As for B1, the binding signal is 0.0131 KA relative to UGCAUGU.
The same measure for B2: 0.00686 KA relative to UGCAUGU; for B3: 0.00778 KA relative to UGCAUGU; for B4: 0.00901 KA relative to UGCAUGU.
With B5, the binding signal was 0.0129 KA relative to UGCAUGU.
The same measure for B6: 0.00187 KA relative to UGCAUGU; for B7: 0.00539 KA relative to UGCAUGU; for B8: 0.0121 KA relative to UGCAUGU.
The same measure for B9: 0.0154 KA relative to UGCAUGU; for B10: 0.0128 KA relative to UGCAUGU; for B11: 0.00665 KA relative to UGCAUGU.
The same measure for B12: 0.0138 KA relative to UGCAUGU; for B13: 0.0261 KA relative to UGCAUGU.
Consider B14, for which the binding signal is 0.00371 KA relative to UGCAUGU.
The same measure for B15: 0.00671 KA relative to UGCAUGU.
The same measure for B16: 0.00741 KA relative to UGCAUGU.
The same measure for B17: 0.0225 KA relative to UGCAUGU; for B18: 0.00323 KA relative to UGCAUGU.
B19: the binding signal was 0.00302 KA relative to UGCAUGU.
The same measure for B20: 0.00412 KA relative to UGCAUGU.
The same measure for B21: 0.00878 KA relative to UGCAUGU; for B22: 0.00414 KA relative to UGCAUGU; for B23: 0.0126 KA relative to UGCAUGU.
The same measure for B24: 0.0229 KA relative to UGCAUGU; for B25: 0.0058 KA relative to UGCAUGU; for B26: 0.473 KA relative to UGCAUGU.
With B27, the binding signal was 0.0132 KA relative to UGCAUGU.
The same measure for B28: 0.00636 KA relative to UGCAUGU; for B29: 0.00757 KA relative to UGCAUGU.
Consider B30, for which the binding signal is 0.00405 KA relative to UGCAUGU.
B31: the binding signal was 0.0143 KA relative to UGCAUGU.

The record behind these values is PMC9911399, “Two distinct binding modes provide the RNA-binding protein RbFox with extraordinary sequence specificity”.
